Experimental data: paper PMC6140323
Results are given in words; binding and its absence hold for the method and conditions named. Binding seen in cells or lysates may run through a third protein. Some results given as binding are weak or reduced against the parent protein; the word gives no strength. For part of these data: Where a sequence is shown, tags or fusion partners need not be part of it.

Protein sequences, listed by entry. Tags and fused reporters are not part of them.
UniProt P42858: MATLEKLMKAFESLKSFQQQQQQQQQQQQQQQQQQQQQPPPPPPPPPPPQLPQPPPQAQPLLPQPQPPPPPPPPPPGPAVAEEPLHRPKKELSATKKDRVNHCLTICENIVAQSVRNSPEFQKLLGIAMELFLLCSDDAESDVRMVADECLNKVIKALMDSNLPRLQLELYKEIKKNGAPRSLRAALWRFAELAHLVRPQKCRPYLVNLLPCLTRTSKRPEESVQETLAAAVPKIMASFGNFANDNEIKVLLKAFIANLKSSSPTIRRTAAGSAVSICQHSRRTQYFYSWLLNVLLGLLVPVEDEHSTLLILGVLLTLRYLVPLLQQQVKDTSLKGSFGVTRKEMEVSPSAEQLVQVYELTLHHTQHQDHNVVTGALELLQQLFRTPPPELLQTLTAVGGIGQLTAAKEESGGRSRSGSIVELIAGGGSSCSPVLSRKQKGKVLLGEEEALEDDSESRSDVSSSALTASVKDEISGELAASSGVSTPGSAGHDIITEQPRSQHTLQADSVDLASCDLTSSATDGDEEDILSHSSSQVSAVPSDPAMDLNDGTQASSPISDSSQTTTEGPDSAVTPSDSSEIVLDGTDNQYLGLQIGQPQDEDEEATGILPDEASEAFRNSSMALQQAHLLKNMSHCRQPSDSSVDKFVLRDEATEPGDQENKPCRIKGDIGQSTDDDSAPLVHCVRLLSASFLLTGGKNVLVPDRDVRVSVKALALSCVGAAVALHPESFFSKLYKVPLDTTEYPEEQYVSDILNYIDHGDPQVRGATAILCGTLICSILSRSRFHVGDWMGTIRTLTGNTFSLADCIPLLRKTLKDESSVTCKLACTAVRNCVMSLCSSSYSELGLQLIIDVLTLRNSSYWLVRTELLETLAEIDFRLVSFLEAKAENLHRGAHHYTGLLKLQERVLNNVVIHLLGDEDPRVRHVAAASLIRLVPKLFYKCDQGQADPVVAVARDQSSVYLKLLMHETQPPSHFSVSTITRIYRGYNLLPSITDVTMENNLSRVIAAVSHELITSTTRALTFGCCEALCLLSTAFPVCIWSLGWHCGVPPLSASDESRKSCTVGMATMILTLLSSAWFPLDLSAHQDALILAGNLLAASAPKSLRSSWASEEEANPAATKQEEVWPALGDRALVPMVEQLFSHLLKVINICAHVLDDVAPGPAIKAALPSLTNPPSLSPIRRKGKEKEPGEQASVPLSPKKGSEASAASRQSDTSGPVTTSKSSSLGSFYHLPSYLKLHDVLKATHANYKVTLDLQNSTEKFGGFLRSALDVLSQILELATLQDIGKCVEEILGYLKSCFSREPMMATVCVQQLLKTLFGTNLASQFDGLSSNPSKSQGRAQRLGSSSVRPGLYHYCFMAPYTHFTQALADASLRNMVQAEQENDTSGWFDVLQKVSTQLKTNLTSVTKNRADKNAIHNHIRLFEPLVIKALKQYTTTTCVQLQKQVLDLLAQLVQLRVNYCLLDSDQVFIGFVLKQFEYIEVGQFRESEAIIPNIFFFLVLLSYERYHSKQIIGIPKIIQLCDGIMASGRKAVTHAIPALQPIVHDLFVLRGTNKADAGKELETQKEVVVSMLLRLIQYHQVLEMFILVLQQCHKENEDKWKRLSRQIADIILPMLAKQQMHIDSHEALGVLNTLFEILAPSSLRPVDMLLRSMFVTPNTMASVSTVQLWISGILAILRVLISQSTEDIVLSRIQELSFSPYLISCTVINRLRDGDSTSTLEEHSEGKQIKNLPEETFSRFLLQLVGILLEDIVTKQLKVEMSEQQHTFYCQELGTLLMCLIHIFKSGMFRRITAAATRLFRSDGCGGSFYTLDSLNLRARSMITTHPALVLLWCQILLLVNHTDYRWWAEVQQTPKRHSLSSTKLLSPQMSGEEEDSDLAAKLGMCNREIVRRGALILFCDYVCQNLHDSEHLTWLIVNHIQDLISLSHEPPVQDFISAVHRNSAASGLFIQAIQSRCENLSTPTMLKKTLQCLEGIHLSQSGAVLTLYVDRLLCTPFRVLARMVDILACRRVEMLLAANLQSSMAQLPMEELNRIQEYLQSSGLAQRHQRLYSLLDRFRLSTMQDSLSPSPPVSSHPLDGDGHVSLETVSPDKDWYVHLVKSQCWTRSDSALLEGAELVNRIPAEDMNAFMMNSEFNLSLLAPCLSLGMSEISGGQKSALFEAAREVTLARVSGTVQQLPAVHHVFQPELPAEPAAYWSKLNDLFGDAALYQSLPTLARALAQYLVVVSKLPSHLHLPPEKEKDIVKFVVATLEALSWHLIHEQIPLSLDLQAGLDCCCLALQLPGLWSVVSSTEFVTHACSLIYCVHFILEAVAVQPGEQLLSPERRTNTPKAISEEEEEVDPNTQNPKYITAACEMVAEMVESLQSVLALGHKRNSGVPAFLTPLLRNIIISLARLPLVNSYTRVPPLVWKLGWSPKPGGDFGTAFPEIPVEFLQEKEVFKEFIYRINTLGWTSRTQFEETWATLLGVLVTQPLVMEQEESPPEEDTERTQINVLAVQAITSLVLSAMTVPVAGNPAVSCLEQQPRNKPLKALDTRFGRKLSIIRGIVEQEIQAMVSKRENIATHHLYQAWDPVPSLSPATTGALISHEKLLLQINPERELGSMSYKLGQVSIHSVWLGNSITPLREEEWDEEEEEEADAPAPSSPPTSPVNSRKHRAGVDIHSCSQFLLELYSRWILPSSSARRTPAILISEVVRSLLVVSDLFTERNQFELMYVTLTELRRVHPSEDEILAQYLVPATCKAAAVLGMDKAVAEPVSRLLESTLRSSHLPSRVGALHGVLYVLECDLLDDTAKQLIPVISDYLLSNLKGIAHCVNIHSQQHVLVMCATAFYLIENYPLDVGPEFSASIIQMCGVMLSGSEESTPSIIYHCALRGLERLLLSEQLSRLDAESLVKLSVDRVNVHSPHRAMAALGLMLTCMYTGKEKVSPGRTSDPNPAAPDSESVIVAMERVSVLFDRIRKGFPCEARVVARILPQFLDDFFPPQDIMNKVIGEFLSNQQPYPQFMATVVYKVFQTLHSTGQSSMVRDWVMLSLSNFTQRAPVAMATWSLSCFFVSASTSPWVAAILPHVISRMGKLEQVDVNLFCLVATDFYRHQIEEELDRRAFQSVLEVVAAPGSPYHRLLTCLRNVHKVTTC

What was measured:
[1] = target: T1, endogenous SNX21 (human (endogenous in HEK293-T)) (UniProt Q969T3); assay: co-IP; endogenous SNX21 precipitated from HEK293-T lysate with 2 µg anti-SNX21 (rabbit IgG as control) and protein-G agarose, 4°C; western blot for endogenous Htt
T1 sequence: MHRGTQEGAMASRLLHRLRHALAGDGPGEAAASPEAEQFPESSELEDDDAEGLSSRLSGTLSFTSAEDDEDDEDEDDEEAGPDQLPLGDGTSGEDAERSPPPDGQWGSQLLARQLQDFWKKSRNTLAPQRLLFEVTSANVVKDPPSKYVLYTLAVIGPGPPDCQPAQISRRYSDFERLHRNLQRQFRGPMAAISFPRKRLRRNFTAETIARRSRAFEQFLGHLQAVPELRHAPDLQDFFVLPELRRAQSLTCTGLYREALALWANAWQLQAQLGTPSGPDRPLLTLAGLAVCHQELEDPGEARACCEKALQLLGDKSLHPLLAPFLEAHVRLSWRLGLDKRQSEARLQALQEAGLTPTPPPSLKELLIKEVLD

[2] = target: T2, GFP-SNX21PX/PXB (residues 129-373) (human) (UniProt Q969T3); assay: co-IP; GFP-nanotrap precipitation of GFP-tagged constructs from transiently transfected HEK293-T lysates (50 mM Tris-HCl pH 7.4, 0.5% NP40), 1 h at 4°C; western blot for endogenous Htt and septins
T2 sequence: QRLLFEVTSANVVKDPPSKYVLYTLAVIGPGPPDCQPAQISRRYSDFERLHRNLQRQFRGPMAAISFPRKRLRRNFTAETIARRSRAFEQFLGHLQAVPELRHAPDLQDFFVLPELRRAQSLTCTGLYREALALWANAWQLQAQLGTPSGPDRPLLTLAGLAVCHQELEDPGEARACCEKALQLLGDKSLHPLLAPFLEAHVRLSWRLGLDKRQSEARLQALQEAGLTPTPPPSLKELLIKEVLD

[3] = target: T3, GFP-SNX21 residues 1-52 (human) (UniProt Q969T3); assay: as above
T3 sequence: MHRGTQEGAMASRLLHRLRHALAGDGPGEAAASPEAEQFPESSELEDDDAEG

binding [1]: binds
binding [2]: no binding
binding [3]: no binding
Substance: huntingtin (Htt), endogenous (from UniProt P42858 1-3142)
